The source gives no read counts; variants with many changes may rest on few reads.
B1: LINE1-mini (parent)
chain: GGCAGAGCUCAACACAGCGUGGCAAAGUGGCUGUGGCUAGACUGCC

Variants of: B1
Assay: self-cleavage, relative activity (ratio to wild type); higher = more cleavage; in vitro, sequencing; the parent is a self-cleaving ribozyme

Question: With AGAAGAGCUCAACACAGCGUGGCAAAGUGGCUGUGGCUAAACUGCC as the variant, how does the self-cleavage read?
Answer: 0.9

Question: Which self-cleavage does the source give for AGCGGAGCUCAAUACAGCGUGGCAAAGUGGCUGUGGCUACACUGCC here?
Answer: 0.03

Question: Which self-cleavage does the source give for AGCCGAGCUCAUCACAGCGUGGCAAAGUGGCUGUUGCUAGACUGCC here?
Answer: 0.14

Question: For AGCAGAGCUCAACGCAGCGUGUCAAAGUGGCUGUGGCUAGACUGCC, which self-cleavage is on record?
Answer: 0.74

Question: Which self-cleavage does the source give for AGUACAGCUCAACACAGCUUGGCAAAGUGGCUGUAGCUGGACUGCC here?
Answer: 0.25

Question: With AGCAGAGCUCAACUCAGCGUGGCUACGUGGCUAUGGCUAGACUGCC as the variant, how does the self-cleavage read?
Answer: 0.05

Question: For AGCAGCGCACAAAACUGCGUGGGAAAGUGCCUGUGGCUAGACUGCC, which self-cleavage is on record?
Answer: 0.05

Question: Which self-cleavage does the source give for AGCAGAGCUCAACGCAGCGUGGCCAAGUGGCUGUGGCUAGACUGCC here?
Answer: 0.1

Question: Which self-cleavage does the source give for AGCAGAGGUCAACACAGCAUGGCAGAGUGGCCGUGGCUAGACUGCC here?
Answer: 0.18

Question: With AGCAGAGCUCAACACAGCGUGGCAACGUUGCUGUGGCUAGACUGCC as the variant, how does the self-cleavage read?
Answer: 0.2

Question: For AGCAGAGCUAAACACAGCGCGGCAAAGUGGCUGUGGCUAGACUGCC, which self-cleavage is on record?
Answer: 0.04

Question: With AGGAGAGCUAAUCACAGCGUGGCAAAGUGGCUGUGGCUAGACUGCC as the variant, how does the self-cleavage read?
Answer: 0.04

Question: Which self-cleavage does the source give for AGUAGAGCUCAACACAGCGUGGCAAAGUGGCAGUGGCUAGACUGCC here?
Answer: 0.34

Question: With AGCCGAGCUCAACACAGCGUGGCAAAGUGGCUGUCGGUAGACUGCG as the variant, how does the self-cleavage read?
Answer: 0.12

Question: Which self-cleavage does the source give for AGCAGUGCUCAACGCAUCGUGGCAAAGUGGCGGUGGGUAGACUGCC here?
Answer: 0.04

Question: Which self-cleavage does the source give for AGGAGAGGUCAAGACAGCGUGGCAAAGUGGGUGGGGAUAGAGUGCC here?
Answer: 0.29

Question: Which self-cleavage does the source give for AGCAGCGCUCAACACACCGGGGCAAAGUGGCUGAGGCUAGACUGCC here?
Answer: 0.03

Question: With AGAAGAUCUCAACACAGCGUGGCAACGUCGCUGUGGCUAGACUGCC as the variant, how does the self-cleavage read?
Answer: 1.63

Question: Which self-cleavage does the source give for AGCAGAGCUCACAACAGCGUGGCAAAGUGGCUGUGGCUAGACUACC here?
Answer: 0.13

Question: With AGGAGAGCUCAACACAGCGUGGCAUAGUGGCUGUGGCUAUACUGCC as the variant, how does the self-cleavage read?
Answer: 0.17

Question: For AGCAGAGCUCAUCAUAGCGUGGCAAAGUGGCUGUGGCUAGACUGCC, which self-cleavage is on record?
Answer: 0.12

Question: Which self-cleavage does the source give for AGAAGAGCUCAACACAGCGUGGCAAAGUGGCUGUGGCUGGACCGGC here?
Answer: 1.16

Question: With AGCAGAGCUCAGCACAGAGUGGCAAUGUGGCUGUGGCUAGACUGCC as the variant, how does the self-cleavage read?
Answer: 0.03

Question: With AGUAGAGCUCAACACCGCGUGGCAUAGUGGCUGUGGCUAGACUGCC as the variant, how does the self-cleavage read?
Answer: 0.55

Question: For AGCAGAGCUCAACACUGCGUGGCAAAGUGGCUGUGGUUAGACUGCC, which self-cleavage is on record?
Answer: 0.04

Question: Which self-cleavage does the source give for AGCAGAGCUCCACACAGGGUCGCAAAGUGGUUAUGGCUAGAUUGCC here?
Answer: 0.13

Question: With AGCAGAGUUGAAGACAGCGUGGCAAAGUGCCUGUGGCUAGACUGCC as the variant, how does the self-cleavage read?
Answer: 0.1

Question: With AGCAGAGGUCAACACAGCGUGUGAAAGUGGCUGUGGCUAGACUGCA as the variant, how does the self-cleavage read?
Answer: 0.14

Question: Which self-cleavage does the source give for AGCAGCGCUCAACACAGCGUGGCAAAGUGGCUGUGGCUAAACUGCC here?
Answer: 0.12

Question: Which self-cleavage does the source give for AGCAGAGCUCCACACAGCGUGGCCAAGUGGCUGUGGCUAGAUUGCC here?
Answer: 0.02

Question: With AGCAGAGCUAAACACAGCGUGGGAAAGUGGCUGUGGCUAGACUGCC as the variant, how does the self-cleavage read?
Answer: 0.05

Question: For AGGAGAGCGCAACACAGCGUGGCACAGUGGCUGUGGCUAGACUGCC, which self-cleavage is on record?
Answer: 0.06

Question: With AGCGAAUCUCAACACAGUGUGGCAAAGAGGGUGUGGCUAGACUGCC as the variant, how does the self-cleavage read?
Answer: 0.17

Question: For AGCAGCGCCCAACACAGCGUGCCAAAGUCGCUGUGACUAGACUGCC, which self-cleavage is on record?
Answer: 0.07

Question: With AGCAGAGCUCUACACAGCGUGUCAAAGUGGCUGUGGCAAGACUGCC as the variant, how does the self-cleavage read?
Answer: 0.04

Question: With AGCAGAGCUCAACACGGCGUGGCAAAGUGGCCGGGGCUAGACUGCC as the variant, how does the self-cleavage read?
Answer: 0.06

Question: Which self-cleavage does the source give for AGAAGAGCUACCCACAGCGUGGCAAAGUAGCUGUGGCUAGAAUGCC here?
Answer: 0.04

Question: With AGAAGAACCCAACGCAACGUGGCAAUUUGGCUGUGGCUAGACUGCC as the variant, how does the self-cleavage read?
Answer: 0.88

Question: Which self-cleavage does the source give for AGCAGAGUUGACCACAGCGUGGCAAAGUGGCUGUGGCUAGUCUGCC here?
Answer: 0.02

Question: For AGCAGAGCUCAGCACAGCGUGGCAGAGUGGCUGUGGCUAGAUUGCC, which self-cleavage is on record?
Answer: 0.02

Question: Which self-cleavage does the source give for AGCAGUGCUCAACACAGCGUGGCAAAGUGGCUGUUGCUAAACUGCC here?
Answer: 0.15

Question: For AGCAGCGCUCAAAACAGCGUGGCAAAGUGGCUGUGGUUAGAAUGCC, which self-cleavage is on record?
Answer: 0.04

Question: Which self-cleavage does the source give for AGCAGAGAUCACCACAGCGUGGCAAAGUGGCGGUGGCUAUACUGCC here?
Answer: 0.14

Question: With AGCAGAGCUCAACACGGCGUGGCAAAGUGGCUGUGGCUAGAGUGCC as the variant, how does the self-cleavage read?
Answer: 0.02

Question: With AGCGGAGCUCAACACAGCAUGGCAAAGUAGAUGUGGCUAGACUGCC as the variant, how does the self-cleavage read?
Answer: 0.05

Question: With AGCAGAGCUCAACACAGCGUGGCUAGGUGGCUGUGGCUAGACUGCC as the variant, how does the self-cleavage read?
Answer: 0.44

Question: For AGCAGAGCUCACCAUAGCGUGGCAAAGUGGCAGUGGCUAGACUGCC, which self-cleavage is on record?
Answer: 0.03

Question: With AGCAGAGCUCAACUCAGCGUGGCAAAGUGGCUGUGGCCAGACUGCC as the variant, how does the self-cleavage read?
Answer: 0.13

Question: For AGCAGAGCUCGACAUAGCGUGGCAAAGUGGGUGUGGCUAGACUACC, which self-cleavage is on record?
Answer: 0.03

Question: Which self-cleavage does the source give for AGCAGAGCUCAACACCGCGUGGCCAAUUGGUUGUGGCUAGACUGCC here?
Answer: 0.02

Question: Which self-cleavage does the source give for AGCAGAGCUAGACCCAGCGUGGCAAAGUGACUGUGGCUAGACUACC here?
Answer: 0.05

Question: Which self-cleavage does the source give for AGCAGCGCUCAACACAGUGUGGCAAAGUGGCUGUGGCUAGACUACC here?
Answer: 0.07

Question: For AGCAGAGUUGAACACAGCGUGGCAAGGUGGCUGUAUCUAGACUGCC, which self-cleavage is on record?
Answer: 0.01

Question: For AGCAGAGCUCAACUCAGCGUGGCAUAGUGGCUGUGGCUAGACUGCC, which self-cleavage is on record?
Answer: 0.04

Question: With AGAAGAGCUCCACACAGCGUGGCAAAGGGGCUGUGGCUAGACUGCC as the variant, how does the self-cleavage read?
Answer: 0.09

Question: With AGCAGAGCUAAACACAGCGUGUCAAAGUGGCUGGGGCGAGACUGCC as the variant, how does the self-cleavage read?
Answer: 0.07
